The results in this text go back to patent US20250084178A1, “ANTI-CD39 ANTIBODIES AND USE THEREOF” (ARCUS BIOSCIENCES, INC., priority 2022, published 2025).

Test [1] deals with T1, His-tagged human CD39 ECD (Homo sapiens, UniProt P49961).
T1 construct: purchased Sino Biological 16020-H08B
T1 sequence (P49961 with tags, fused parts or gaps): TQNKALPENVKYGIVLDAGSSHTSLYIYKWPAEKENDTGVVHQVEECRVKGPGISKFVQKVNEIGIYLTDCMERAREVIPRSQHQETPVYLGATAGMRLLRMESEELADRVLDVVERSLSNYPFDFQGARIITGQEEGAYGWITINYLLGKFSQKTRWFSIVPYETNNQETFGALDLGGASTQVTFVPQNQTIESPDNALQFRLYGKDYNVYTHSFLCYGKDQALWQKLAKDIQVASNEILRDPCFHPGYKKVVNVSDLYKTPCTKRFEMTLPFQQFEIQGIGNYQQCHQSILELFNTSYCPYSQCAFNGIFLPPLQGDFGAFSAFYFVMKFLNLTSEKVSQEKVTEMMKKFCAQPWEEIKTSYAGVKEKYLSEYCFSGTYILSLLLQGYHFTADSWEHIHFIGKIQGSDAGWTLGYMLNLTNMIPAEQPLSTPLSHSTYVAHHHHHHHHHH
The experiment in a line: SPR kinetics, Biacore 8K, captured antibody and soluble CD39 ECD analyte. It is filed as binding. On the procedure:
The kinetic binding of these recombinant anti-CD39 antibodies to human CD39 was determined by surface plasmon resonance (SPR) using a Biacore 8K instrument. Recombinant antibodies were immobilized using a goat anti-human Fc IgG coated CM5 sensor chip (GE, Cat. No. 29-1496-03), and soluble His-tagged CD39 ECD protein SEQ ID NO: 72 (Sino Biological, Cat. No. 16020-H08B) was used as the analyte. The binding constants were determined at 25° C.
The kinetics of purified antibody binding to antigen were determined using Surface Plasmon Resonance (SPR) and used to rank the antibodies. The affinity of anti-CD39 antibodies to human CD39 ECD His-tagged antigen (SEQ ID NO: 72) was measured using a Biacore 8K instrument. The activator was prepared by mixing 400 mM EDC and 100 mM NHS (GE) immediately prior to injection. The CM5 sensor chip (GE, Cat. No. 29-1496-03) was activated for 420 s with the activator. Goat anti-human Fc IgG (30 μg/mL in 10 mM NaAc, pH 4.5) was then injected to the channel for 420 s at a flow rate of 10 μL/minute. The chip was deactivated by 1 M ethanolamine hydrochloric acid. Anti-CD39 antibodies were diluted to 4 μg/mL in running buffer (1×HBS-EP+) and were injected to the channel at a flow rate of 10 μL/minute for 15 s. Six concentrations (8, 4, 2, 1, 0.5 and 0.25 nM) of the CD39 antigen analyte were injected orderly to the channel at a flow rate of 30 μL/minute for an association phase of 180 s, followed by a 2400 s dissociation phase. Glycine (10 mM, pH 1.5) as regeneration buffer was injected following the dissociation phase. The sensorgrams for reference channel and buffer channel were subtracted from the test sensorgrams. The experimental data were fitted with a 1:1 binding model steady state affinity/heterogeneous ligand. The molecular weights of the CD39 antigen and anti-CD39 antibodies used in the calculation were 52 and 145 kDa, respectively.
On the technique in general: Surface plasmon resonance follows binding to a sensor surface in real time, without labels.

The next test concerns NLRP3 inflammasome. The experiment in a line: Macrophage IL-1β/IL-18 release assay. To be noted: in vitro derived macrophages; LPS, antibody 10 or 100 nM, 500 μM ATP; relative to isotype control. It is filed as cell-based, human. On the procedure: Macrophage IL-1β/IL-18 Release Assay: The NLRP3 inflammasome is a multiprotein, cytosolic complex that once oligomerized allows for the cleavage and activation of pro-caspase-1 proteins into caspase-1. […] These cytokines are involved in innate immune responses, creating a generalized pro-inflammatory environment.
Anti-CD39 antibodies were tested for their ability to activate the NLRP3 inflammasome on macrophages, by measuring the secretion of mature IL-1β and IL-18. On day 0, previously isolated, positively selected CD14^+ monocytes (see Example 4 were defrosted and cultured in RPMI media with 10% heat inactivated FBS, 1% Glutamax, 1% Penicillin/Streptomycin and 50 ng/mL recombinant human M-CSF (R&D, Cat. No. 216MCC/CF) at a density of approximately 15×10^6 CD14^+ monocytes per 10 cm dish (Thermo Scientific Nunclon Delta Surface, Cat. No. 150464). On day 5, non-adherent cells were washed off and the adherent macrophages were collected by scraping and plated at a density of 0.125×10^6 cells per well in 24-well plates. The cells were then incubated overnight to allow adherence. […] The supernatants were collected and IL-1β levels were analyzed by CBA (BD, Cat. No. 558279) or ELISA (R&D, Cat. No. QK201) following manufacturer's instructions. IL-18 levels in the supernatants were analyzed by ELISA (R&D, Cat. No. DL180) following manufacturer's instructions. […]

[2] abbreviates: 25° C., rat/human chimeric antibodies (Table 2).
The mark [3] stands for this setting: Clone 31 humanized IgG4 antibodies (Table 8).
The mark [4] stands for this setting: humanized IgG4 (S228P) variants of antibody 39 (Table 5).

B1: ch19_IGG4.P: rat/human IgG4 (S228P) chimera of antibody 19; HC SEQ ID NO: 35, LC SEQ ID NO: 36 (antibody)
heavy: QVQLKETGPGLVQPTQTLSITCTVSGFSLTSYFTQWVRQTPGKGLEWMGFIRSGGSTQYNSAFKSRLSISRDTSKNQVFLKMNSLKTEDTGVYYCARDRPDYHDGTYGVLDVWGQGASVTVSSASTKGPSVFPLAPCSRSTSESTAALGCLVKDYFPEPVTVSWNSGALTSGVHTFPAVLQSSGLYSLSSVVTVPSSSLGTKTYTCNVDHKPSNTKVDKRV[no letters for human IgG4 Fc with S228P (EU numbers)]
light: DIRMTQSPASLSASLGETVNIECLASEDIDSDLAWYQKKPGKSPQLLIYNGNALQNGVPSRFSGSGSGTHFSLKINSLQSEDVATYFCQQYINYPYTFGGGTKLELRRTVAAPSVFIFPPSDEQLKSGTASVVCLLNNFYPREAKVQWKVDNALQSGNSQESVTEQDSKDSTYSLSSTLTLSKADYEKHKVYACEVTHQGLSSPVTKSFNRGEC
With B1, in test [1] (setting [2]), the ka is 902000 M⁻¹ s⁻¹ and the kd was 0.0004 s⁻¹.

B2: ch31_IGG4.P: rat/human IgG4 (S228P) chimera of antibody 31; HC SEQ ID NO: 37, LC SEQ ID NO: 38 (antibody)
heavy: EVHLQQSGAALVRPGTSVKLPCKVSGDSITAYFMHFVRQRPGQGLEWMGRIDPDHERTKYAEKFKNRASLTSETSSNTVFLQLTSLTSEDTATYFCTTERVPGFETDYWGQGVMVTVSSASTKGPSVFPLAPCSRSTSESTAALGCLVKDYFPEPVTVSWNSGALTSGVHTFPAVLQSSGLYSLSSVVTVPSSSLGTKTYTCNVDHKPSNTKVDKRV[no letters for human IgG4 Fc with S228P (EU numbers)]
light: DIVLTQSPTLAVSLGQRATISCRTNQTVDHYGTTYMNWYQQKPGQQPKLLIYLASSLASGIPARFSGRGSGTDFTLTIDPVEADDTATYYCQQSRNLWTFGGGTKLELKRTVAAPSVFIFPPSDEQLKSGTASVVCLLNNFYPREAKVQWKVDNALQSGNSQESVTEQDSKDSTYSLSSTLTLSKADYEKHKVYACEVTHQGLSSPVTKSFNRGEC
For B2, in test [1] (setting [2]), the ka was 1.1e+06 M⁻¹ s⁻¹ and the kd was 0.000125 s⁻¹. In test [1] (setting [3]), this molecule showed a ka of 1.16e+06 M⁻¹ s⁻¹ and a kd of 0.00015 s⁻¹.

B3: ch39_IGG4.P: rat/human IgG4 (S228P) chimera of antibody 39; HC SEQ ID NO: 39, LC SEQ ID NO: 40 (antibody)
heavy: EVQLVESGGGLVQPGRSLKLSCLASGFTFNNYGMNWIRQAPGKGLEWVASFSSSSTYISYADTVKGRFTISRENAKNTLYLQMTSLRSEDTALYYCVRHGRYGGYGGFYFDYWGQGVMVTVSSASTKGPSVFPLAPCSRSTSESTAALGCLVKDYFPEPVTVSWNSGALTSGVHTFPAVLQSSGLYSLSSVVTVPSSSLGTKTYTCNVDHKPSNTKVDKRV[no letters for human IgG4 Fc with S228P (EU numbers)]
light: DTVLTQSPALAVSPGERVSISCRASEGVKSYMHWYQQKPGQQPKLLIYKASNLASGVPARFSGSGSGTDFTLTIDPVEADDTATYFCQQSWNDPTFGAGTKLELKRTVAAPSVFIFPPSDEQLKSGTASVVCLLNNFYPREAKVQWKVDNALQSGNSQESVTEQDSKDSTYSLSSTLTLSKADYEKHKVYACEVTHQGLSSPVTKSFNRGEC
In test [1] (setting [2]), B3 yielded a ka of 348000 M⁻¹ s⁻¹ and a kd of 7.45e-05 s⁻¹. Also, in test [1] (setting [4]), the ka amounted to 280000 M⁻¹ s⁻¹ and the kd is 9.4e-05 s⁻¹. Further, in the test on NLRP3 inflammasome, the IL-1β release entry is “increased” and the IL-18 release entry is reported as “increased”.

B4: hu31.7_IGG4.P: humanized variant of antibody 31; HC SEQ ID NO: 52, LC SEQ ID NO: 57 (antibody)
heavy: EVQLVQSGAEVKKPGATVKISCKVSGDSITAYFMHWVQQAPGKGLEWMGRIDPDHERTKYAEKFKNRVTITADTSTNTVYMELSSLRSEDTAVYYCATERVPGFETDYWGQGVMVTVSSASTKGPSVFPLAPCSRSTSESTAALGCLVKDYFPEPVTVSWNSGALTSGVHTFPAVLQSSGLYSLSSVVTVPSSSLGTKTYTCNVDHKPSNTKVDKRV[no letters for human IgG4 Fc with S228P (EU numbers)]
light: DIVMTQSPDLAVSLGERATINCRTQQTVDHYGTTYMNWYQQKPGQPPKLLIYLASSLASGVPDRFSGSGSGTDFTLTISSLQAEDVAVYYCQQSRNLWTFGGGTKVEIKRTVAAPSVFIFPPSDEQLKSGTASVVCLLNNFYPREAKVQWKVDNALQSGNSQESVTEQDSKDSTYSLSSTLTLSKADYEKHKVYACEVTHQGLSSPVTKSFNRGEC
In test [1] (setting [3]), B4 returned a ka of 1.24e+06 M⁻¹ s⁻¹ and a kd of 0.000615 s⁻¹.
